# Results reported in ChEMBL document CHEMBL4888484, “Replenishing the malaria drug discovery pipeline: Screening and hit evaluation of the MMV Hit Generation Library 1 (HGL1) against asexual blood stage Plasmodium falciparum ,using a nano luciferase reporter read-out” (2022).
# The whole screen tested about 150,000 compounds, of which about 540 (0.36%) showed an effect of 50% or more. Some of the results follow.
# Test system: Plasmodium falciparum
# Assay: Primary screen in NF54 nanoGlo assay, in single point, at 2uM, 72h; a lower Z score goes with more inhibition
# Type: functional, Erythrocyte
# Details: timepoint 72 hour
Structure (SMILES),% Inhibition [%],Z score
COCCN(CCOC)C(=O)c1cc(F)ccc1F,9,-0.92
Cc1ccc(-n2c(C)c(C)c3c(=O)n(CC(=O)NC(C)C)cnc32)cc1,-9,0.91
CCOc1ccc(-c2nc(N(C(=O)C3CCCCC3)c3ccccc3OC)sc2C)cc1,-5,0.63
CCn1ccc(C(=O)NCC(=O)N2CCCCCCNC(=O)C[C@H]2c2ccccc2)n1,2,-0.3
COc1cccc(-c2nsc(C(=O)NCc3cccnc3)c2N)c1,35,-0.67
C[C@H](OCC1CC1)C(=O)Nc1ccncc1,-8,1.14
c1ccc(-c2cc3c(N4CCC4)ncnc3s2)cc1,31,-4.11
C[C@H](NC(=O)Nc1ccc(S(=O)(=O)N2CCCCC2)cn1)c1nccn1C,-9,1.17
C=CCNC(=O)c1cccc(S(=O)(=O)N[C@@H]2C[C@@H](CO)N(C)C2)c1,8,-1.17
CN(Cc1ccccc1)Cc1cn([C@H]2CO[C@H]3[C@@H]2OC[C@@H]3NC(=O)C2CCCCC2)nn1,-6,0.93
Cc1nc(C(=O)N2CCc3[nH]c4c(Cl)cccc4c3C2)c(C)o1,3,-0.52
CC(C)C12OC3C(O)C4CC3C1C4C(=O)N2C1CCCCC1 (stereo not given),-3,0.48
CCCN1CCc2c(c(CN(C(=O)C3CCCCC3)C(C)C)nn2-c2ccc(C)cc2)C1,-5,0.53
Cc1ncsc1CCC(=O)N[C@H]1CC[C@H]1NC1CCCC1,-2,0.32
CNc1snc(C)c1C(=O)N1CCc2[nH]ncc2C1,-12,1.91
COc1ccc(C2=NN(C(=O)CN(CCN3CCOCC3)C(=O)c3ccccc3F)[C@H](c3ccc(OC)cc3)C2)cc1,3,-0.44
COc1ccccc1C(=O)Nc1ccc(S(=O)(=O)N2CCc3ccccc32)cc1,-17,2.36
CCCc1nc(C)cc(N2CCN(CC3CC3)[C@@H](CCO)C2)n1,-16,2.11
COc1ccc2nc3ccccc3nc2c1NC(=O)c1ccc(Cl)cc1,3,-0.31
CCCn1c(-c2cccc(C(=O)N3CCC(C)CC3)c2)nc2cccnc21,-5,0.68
CC[C@H](C)[C@H](CO)NC(=O)CCc1c(C)[nH]c2cc(=O)[nH]n2c1=O,-10,1.2
Cc1cccc(C)c1Oc1ncccc1CNC1CCC1,2,-0.38

Structure (SMILES),% Inhibition [%],Z score
CCOC(Cn1cc(CO)nn1)OCC,2,-0.33
Cc1cccc(Nc2nc(C(=O)N(CCC(=O)NC[C@H]3CCCO3)Cc3ccco3)cs2)c1,-9,1.48
CCOC(=O)c1cnn2c1N(S(=O)(=O)c1c(C)cnn1C)CC2,-15,1.92
N#CCNC(=O)c1ccc(C(F)(F)F)[nH]1,8,-0.85
O=C(c1cccnc1)N1CCCC1CC(O)c1ccccc1 (stereo not given),-13,1.76
COCc1cc(=O)n(CC(=O)NCCc2ccc(Cl)cc2)c(N2CCCC2)n1,-8,1.12
FC(F)CN1CC[C@H](CNc2cnccn2)C1,-7,1.03
CC(C)(C)C(=O)N1CCC2(CC1)CC(=O)N(Cc1ccc(Cl)cc1)C2,-1,0.11
CCOC(=O)CC1=Nc2ccccc2NC(=O)C1,10,-1.27
O=C(Nc1cccc2[nH]ccc12)NC1CCCC1,7,-1.16
CC(C)c1nn(C)cc1-c1noc(C2CC3C=CC2C3)n1 (stereo not given),-4,0.59
COCCN(CC1CN(Cc2ccco2)CC1c1cccc(F)c1)C(=O)C(C)C (stereo not given),-1,0.2
O=C(NCc1nnc2ccccn12)c1c[nH]c2cc(Cl)ccc2c1=O,-2,0.23
CCOc1ccc(CNC(=O)c2cccc(Nc3nc4ccccc4n4cnnc34)c2)cc1OC,15,-2.35
CCNC(=O)[C@@H]1CC[C@](C)(C(=O)Nc2cnn(CC(=O)NC)c2)C1(C)C,-15,2.88
Cc1nc(NC2CCOCC2)c2sccc2n1,-12,1.92
CO[C@@]12CC[C@H](Oc3ccccn3)C[C@@H]1N(CC1(C)CCOCC1)CC2,-11,2.19
CN1C[C@@H](NC(=O)CCc2cccn2C)CCC1=O,-4,0.69
CN1CCCN([C@H]2CC(=O)N(c3ccc(Br)cc3)C2=O)CC1,-10,1.4
COCc1nc(NC2CCC(NC(=O)c3ccc4c(c3)OCO4)CC2)c2c(C)nn(-c3ccccc3)c2n1 (stereo not given),22,-2.52
CC(C)CC(C)CC(=O)N1CCCC(N(C)C(=O)C2CCC2)C1 (stereo not given),-8,1.19
C[C@]1(NC(=O)c2cc(F)cc(Cl)c2O)CCOC1,-5,0.66

Structure (SMILES),% Inhibition [%],Z score
Cc1noc(C)c1CN[C@@H](C)CC1CCCCC1,-8,1.48
O=C(Nc1ncc(Cc2ccccc2)s1)N1CCS(=O)(=O)CC1,-6,0.88
CC(C)(C)n1cc(C(=O)Nc2scnc2-c2ccc(F)cc2)cn1,-5,0.49
CC(C)(C)OC1CC(NC(=O)CC#N)C1n1cccn1 (stereo not given),7,-1.01
CCc1cnc(Cn2cnc3c(cnn3C)c2=O)o1,-9,1.41
OC1(CNc2nc3ccccc3o2)CCOCC1,-3,0.62
COc1ccc(OC)c(C2CCCN2C(=O)CN2C(=O)NC(C)(c3ccc(C(C)(C)C)cc3)C2=O)c1 (stereo not given),5,-0.83
CCn1cnnc1CCNc1nc(COC)nc2c1cnn2C,1,-0.15
COCc1nc([C@@H]2CCCCCN2C(=O)c2cc(C(C)C)no2)no1,2,-0.2
CC[C@H]1CN(C(=O)c2cnc(N3CCN(C)CC3)nc2C)CCN1C(C)C,-2,0.38
CC1(C)CN(CCc2ccc(F)c(F)c2)C[C@@]2(CCOC2)O1,-11,2.09
CCOc1ccnc(NCCN2CCC(CO)CC2)n1,-12,1.48
COc1ccc(C(=O)n2[nH]c(=O)c(CCO)c2C)cc1,32,-0.49
COc1ccc(O[C@H]2CCN(C(=O)c3ccc(C#N)cc3)C2)nn1,0,-0.02
Cc1cc(=O)n(CC(=O)Nc2ccc(F)c(F)c2)c(Nc2ccc(C)c(C)c2)n1,-27,2.94
COCCN(C(=O)c1nccc2cccnc12)[C@H]1CCOC1,-7,0.7
CN(C)c1ccc(/C=C/c2ccnc3cc(Cl)ccc23)cc1,-8,0.97
Cc1nccc(NC(=O)C(C)(C)Oc2cccc(Cl)c2)c1Cl,8,-0.96
Cc1cc(NC(=O)N2CC3C(C2)C3(C)C)c(C#N)cc1N(C)C (stereo not given),-12,1.73
CS(=O)(=O)N1CCc2cc3ccccc3nc21,-10,1.13
O=C(COc1cccnc1)NC(Cc1ccccn1)[C@H]1C[C@@H](O)C1 (stereo not given in full),10,-1.26
CCc1nn(C)c2c(=O)n(CC3(C)COC3)cnc12,1,-0.22

Structure (SMILES),% Inhibition [%],Z score
CCOCCCNC(=NC)NCCc1ccc(OC)cc1,-9,0.78
COc1ccc(F)cc1CC(=O)N1CCNC(=O)c2ccccc21,-10,1.66
COc1ccc(CCc2nnc(CCC(=O)N3C[C@@H](C)O[C@@H](C)C3)o2)cc1,-23,2.06
Cc1cc(C)nc(O[C@H]2CCCN(S(=O)(=O)c3cccc(Cl)c3C)C2)n1,5,-0.65
Cc1ccc(C(=O)NC(c2ccc(F)cc2)C2CCCO2)c(=O)[nH]1 (stereo not given),-10,1.23
CC(C)OCCNc1nc(N)c2ccsc2n1,8,-1.08
CCn1cc(C#N)c(=O)n(CC(=O)Nc2cccc(C(=O)NC3CC3)c2)c1=O,-6,1.14
CCOCCC(=O)Nc1ccc(Br)cc1C,-6,1.19
O=C(c1ccncc1)N1CCC[C@@](F)(C(=O)N2CCCC2)C1,-28,2.44
Cc1cc(CS(=O)(=O)NC2c3ccccc3CCCC2C)no1 (stereo not given),0,-0.02
COc1ccccc1[C@@H](c1ccc2c(OC)cccc2c1O)N1CCCCC1,-2,0.29
C[C@@H](C(=O)N1CCN(Cc2ccc3c(c2)OCO3)CC1)n1sc2ccccc2c1=O,-4,0.85
COc1ccccc1C(=O)NC[C@]1(O)CCCN(C(=O)c2ccc[nH]2)CC1,-19,3.67
Cc1ccc(-c2cc(C(=O)N3CCC(NC(=O)c4ccccc4C)CC3)[nH]n2)c(C)c1,-6,0.82
CCCNC(=O)N1CC[C@@]2(CCCN(CC3CCCCC3)C2=O)C1,1,-0.13
FC(F)(F)c1ccc(-n2cc(NCc3ncc[nH]3)cn2)cc1,-1,0.08
CC(C)(C)Cc1ncc(C(=O)N2CCO[C@]3(CCOC3)C2)s1,-2,0.31
CNc1ccnc(N(C)Cc2snnc2C)n1,16,-2.08
O=C1CCC(=O)N1C1CC2CCC(C1)N2S(=O)(=O)c1ccc(C(F)(F)F)cc1 (stereo not given),-12,1.39
